{"source": "PubChem BioAssay AID686978", "about": "(National Center for Advancing Translational Sciences (NCATS), 2013)", "note": "The whole screen tested about 420,000 compounds, of which about 64,000 (15%) were called active. Inconclusive means that the source gave no clear call. Such entries were picked first, then a sample of the others. Calls come from the whole dose curve; as a rule, active = well fitted inhibition curve with a large enough effect; inconclusive = small, poorly fitted or top-dose-only effect; inactive = flat fitted curve, though single readings scatter. No potency is given beside an inconclusive call; the fits are too rough. % is set by controls: 0 for no effect and ±100 for the full control effect; potency is the fitted concentration of half-maximal effect; tags give direction and shape of the fitted curve."}
{"test": "qHTS for Inhibitors of human tyrosyl-DNA phosphodiesterase 1 (TDP1): qHTS in cells in absence of CPT; note: nearly all actives have a fitted effect of over 55% in size", "settings": "DT40 Tdp1-/- hTDP1 cells, no CPT, ATP luminescence, 48 h; activity change, negative = growth inhibition: at 46.2 µM (top of the series) unless noted", "how_it_was_run": "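DT40 Tdp1-/-;hTDP1 cells, no CPT (DMSO vehicle only), 400 cells/well; compounds pin-transferred; ≥48 hr, 37 °C; CellTiter-Glo 30 min RT dark, luminescence read.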"}
{"smiles": "COc1cccc(Oc2ccc(C(F)(F)F)cc2NC(=O)CN2C(=O)NC3(CCCC3)C2=O)c1", "Potency": "inconclusive [inhibitor, single point]"}
{"smiles": "COc1cc(/C=N/NC(=O)C(=O)NCC2CCCO2)ccc1O", "note": "(stereo not given)", "Potency": "inactive"}
{"smiles": "CCc1nc(SCc2cc(=O)[nH]c3ccccc23)c2c(C)c(C)sc2n1", "Potency": "inactive"}
{"smiles": "Cn1nnnc1SCC(=O)c1ccco1", "Potency": "inconclusive [inhibitor, full curve, poor fit]"}
{"smiles": "CC(=O)Nc1cccc(/C(C)=N\\NC(=O)c2ccc(Cn3nc([N+](=O)[O-])c(Cl)c3C)o2)c1", "Potency": "inconclusive [inhibitor, single point]"}
{"smiles": "COc1ccccc1C(CNC(=O)c1cccc(NS(=O)(=O)c2ccc(Br)cc2)c1)N(C)C", "note": "(stereo not given)", "Potency": "active: 18.4 µM"}
{"smiles": "CC1Cc2ccccc2N1S(=O)(=O)c1nnc(NC(=O)c2cccc(F)c2)s1", "note": "(stereo not given)", "Potency": "inconclusive [inhibitor, single point]"}
{"smiles": "CO[C@@H]1CN(C)C(=O)c2cc(NC(=O)Nc3ccc(Cl)cc3)ccc2OC[C@H](C)NC[C@H]1C", "Potency": "inconclusive [inhibitor, single point]"}
{"smiles": "COc1ccc(CCNC(=O)C(C)Sc2ccc(C)cc2)cc1OC", "note": "(stereo not given)", "Potency": "inconclusive [inhibitor, single point]"}
{"smiles": "CN(C)N(C(=O)c1cc(-c2cccs2)nn1-c1ccccc1)C1CCS(=O)(=O)C1", "note": "(stereo not given)", "Potency": "inactive"}
{"smiles": "CSc1[nH]c(=O)c(C(=O)O)cc1C#N", "Potency": "inactive"}
{"smiles": "S=c1[nH]nc(-c2ccco2)n1-c1cccc2ccccc12", "Potency": "inactive"}
{"smiles": "CCC(=O)N1CCc2cc(CNC(=O)Cc3ccc(F)cc3)ccc21", "Potency": "inactive"}
{"smiles": "COc1ccc(CNc2nc3ccccc3s2)cc1OC", "Potency": "inconclusive [inhibitor, single point]"}
{"smiles": "CC(C)(C)c1nnc(NC(=O)Cc2ccc(Br)cc2)s1", "activity change, negative = growth inhibition": "inconclusive: -34.1% [inhibitor]"}
{"smiles": "CN1CCN(S(=O)(=O)c2cccc(C(=O)Oc3ccc(C(C)(C)C)cc3)c2)CC1", "Potency": "inconclusive [inhibitor, partial curve]"}
{"smiles": "CCCCC(=O)N1CCN(c2ccc(OC)cc2[N+](=O)[O-])CC1", "Potency": "inconclusive [inhibitor, single point]"}
{"smiles": "Cc1cccc(OCCn2c(NC(=O)c3ccco3)nc3ccccc32)c1", "Potency": "inconclusive [inhibitor, single point]"}
{"smiles": "CCOC(=O)c1cnc(SCC(=O)N2CCN(c3ccccc3)CC2)nc1N", "Potency": "inconclusive [inhibitor, single point]"}
{"smiles": "CC(=O)C(C(c1ccccc1)N1CCCc2ccccc21)N1CCOCC1", "note": "(stereo not given)", "Potency": "inconclusive [inhibitor, partial curve]"}
{"smiles": "Cc1ccc(NC(=O)c2cc(S(=O)(=O)NC3CCCCC3)ccc2F)cc1Cl", "Potency": "active: 20.6 µM"}
{"smiles": "CN(C)S(=O)(=O)c1cccc(NC(=O)c2ccccc2OCc2ccc(F)cc2)c1", "Potency": "inconclusive [inhibitor, single point]"}
{"smiles": "CCOc1ccc(-c2c(=O)n(OCc3ccc([N+](=O)[O-])cc3)c3ccccc3[n+]2[O-])c(OCC)c1", "Potency": "inconclusive [inhibitor, single point]"}
{"smiles": "O=C(CSc1ccc2c(c1)OCCO2)N1CCN(c2ccccc2O)CC1", "Potency": "active: 23.1 µM"}
{"smiles": "CN(CCc1cnn(C)c1)Cc1nc(CC2CC2)no1", "Potency": "inactive"}
{"smiles": "COc1cccc(Cc2nc3cccnc3n2C2CCN(Cc3ccc(C)s3)CC2)c1", "Potency": "inactive"}
{"smiles": "O=C(N/N=C/c1ccc(-c2cccc(C(F)(F)F)c2)o1)c1ccccc1Br", "Potency": "inconclusive [inhibitor, single point]"}
{"smiles": "CCn1nnc2cc(C(=O)Nc3ccc(C)c(Cl)c3)ccc21", "Potency": "inactive"}
{"smiles": "CC1=C(C(=O)OC2CCCCC2)C(c2ccco2)C2=C(CC(C)(C)CC2=O)N1", "note": "(stereo not given)", "Potency": "inconclusive [inhibitor, single point]"}
{"smiles": "CC1(C(=O)NCc2ccc3c(c2)OCO3)CCN1C(=O)Cc1cccc2ccccc12", "note": "(stereo not given)", "Potency": "inconclusive [inhibitor, single point]"}
{"smiles": "CCOC(=O)c1c(NC(=O)COc2ccc(C)cc2C(C)(C)C)sc2c1CCC(C)C2", "note": "(stereo not given)", "Potency": "inactive"}
{"smiles": "OC(c1ccccc1)C(NCCNCc1ccccc1)c1ccccc1", "note": "(stereo not given)", "Potency": "inconclusive [inhibitor, single point]"}
{"smiles": "NC(=O)C[C@@H](N)C(=O)O", "Potency": "inconclusive [inhibitor, full curve, poor fit]"}
{"smiles": "CC(C)(C)c1cc(CN(CCO)CCO)cc(C(C)(C)C)c1O", "Potency": "inconclusive [inhibitor, single point]"}
{"smiles": "Cc1c(C(=O)N2CCC(C)CC2)c(S(=O)(=O)Nc2cccc(C(F)(F)F)c2)c(C)n1C", "Potency": "inconclusive [inhibitor, single point]"}
{"smiles": "Nc1ncc2c(n1)CCN(c1ccc([N+](=O)[O-])cc1)C2", "Potency": "inconclusive [inhibitor, partial curve]"}
{"smiles": "O=C(Cn1ncc2c3ccccc3n(Cc3ccccc3)c2c1=O)NCc1ccco1", "Potency": "inconclusive [inhibitor, single point]"}
{"smiles": "COc1cccc2sc(NNC(=O)c3nc4ccccc4s3)nc12", "Potency": "active: 6.51 µM"}
{"smiles": "COc1ccc(CCC(C)NC2CCCCCCC2)cc1", "note": "(stereo not given)", "Potency": "inconclusive [inhibitor, single point]"}
{"smiles": "COc1ccnc(Oc2cccc(C(F)(F)F)c2)c1C(=O)N/C=N/OCc1ccccc1F", "Potency": "active: 20.6 µM"}
{"smiles": "Cc1ccc(-n2c(=O)c3sccc3n(CC(=O)NC3CCCC3)c2=O)cc1", "Potency": "inconclusive [inhibitor, full curve]"}
{"smiles": "Cc1cc(C)cc(C(O)c2ncc(-c3ccccc3Cl)[nH]2)c1", "note": "(stereo not given)", "Potency": "inconclusive [inhibitor, single point]"}
{"smiles": "CCOC(=O)N1CCN(C(=O)CSc2ccc(C(F)(F)F)cc2[N+](=O)[O-])CC1", "Potency": "inconclusive [inhibitor, single point]"}
{"smiles": "CC1CCCCC1NS(=O)(=O)c1ccc(S(=O)(=O)NCc2ccncc2)cc1", "note": "(stereo not given)", "Potency": "active: 7.31 µM"}
{"smiles": "Cn1nc(C(C)(C)C)cc1C(=O)N1CCCCC1c1cc(C(=O)Nc2ccc3c(c2)OCO3)no1", "note": "(stereo not given)", "Potency": "active: 4.61 µM"}
